± gives the standard deviation of the averaged measurements. This is one part of the list.
These sequences were tested on PfAP2-EXP AP2 domain (GST-tagged) (assay: gcPBM binding intensity (ln(normalized median fluorescence intensity)); higher = stronger DNA binding).
Procedure, shortened: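 GST-tagged P. falciparum DNA-binding domains, expressed in E. coli (about 25 μg on average), were applied for 1 h to an Agilent 4 × 180k array of primer-extended double-stranded 36-bp intergenic genomic probes plus negative controls. The binding buffer was 1× PBS with 1% milk, 0.2 mg/ml BSA, 0.5% salmon testes DNA and 0.03% Triton X-100. Bound protein was detected with Alexa488 anti-GST antibody and scanned at 488 nm. Binding intensity is the highest Masliner-normalised natural-log median intensity across replicate spots of either probe orientation.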

Sequence | gcPBM binding intensity (ln)
AAAAAAAAAAAAAAATGTACATATAAATAAATATAT [XGTACX_site7248] | 8.51 ± 0.42
ACAACATAGAGGGGCACACACATATATACATAAAAA [CACACA_site6954] | 8.77 ± 0.53
TAATATCCATATAAAACACACATCAAGGTTGTTAAC [CACACA_site175] | 8.5 ± 0.4
AATTCATATACAAAAAGTACAAACGAAAAATAAAAA [XGTACX_site2900] | 8.87 ± 0.58
TATGTGCACCCATATACACACACAAATACAATGATA [CACACA_site8295] | 9.99 ± 1.4
GTTATATAAAAATATTGTACATTCTATATAAAGTCA [XGTACX_site4418] | 8.41 ± 0.26
ATGTTTTATATTATTAATATATATATATATATATAT [CACACA_negctrl_site331] | 10.1 ± 0.28
AATCTAATTAAAATCACACATATATTCGTCGTAATA [CACACA_site5855] | 8.24 ± 0.42
ATATATATATATATAACACACGTGTATTTATCTGTA [CACACA_site5922] | 9.99 ± 0.34
AAAAAATTAACGAGTGCACACATATTTAGATAAAAT [CACACA_site8958] | 8.68 ± 0.18
ATATATATATATATGTGTACACAAAAAATATTATAT [XGTACX_site5741] | 10.1 ± 0.24
ATTCCATAAGTAAACACACAAATGCCAAAATTTTAT [CACACA_site7491] | 8.6 ± 0.67
ATTCAAAAAAAATCAACACACAGTTACATAGCTCAA [CACACA_site2234] | 8.45 ± 0.64
GCACATATATATGAAACACACATGGAAACATCTCTT [CACACA_site3966] | 8.58 ± 0.52
AACGAAAACACTACGTGTACCAAATGTCCTGCCAAC [XGTACX_site5735] | 8.45 ± 0.53
ATGGAAAAAAAGCATTGTACATTTAAAGAAAAACAG [XGTACX_site6639] | 8.91 ± 0.35
TATTATATTTGTATGTGTACTTATATGGTTGTAATA [XGTACX_site4548] | 8.61 ± 0.2
AAATATTATCAAACATAAATTATTTTTATCCGTATA [CACACA_negctrl_site771] | 8.21 ± 0.4
ATATATGTTAATAATTGTACAAATCGATAATATATA [XGTACX_site5076] | 8.95 ± 0.42
AAAAAAATATAGATCTGTACATATATAAATATATGT [XGTACX_site511] | 8.21 ± 0.33
TCTCTAATTTTTAATACACACAAATAAATAAATAAA [CACACA_site216] | 8.53 ± 0.22
AATGTATATTATTGCACACATATATAAAATTATGCT [CACACA_site1096] | 8.38 ± 0.35
ATCTCTATGATATATACACACAAATATACAAAAAAA [CACACA_site6605] | 8.65 ± 0.49
ATTTGTGAATATATTCGGTGAACTTTGTTAACACAT [XGTACX_negctrl_site445] | 8.88 ± 0.39

Reference: the supplement of paper PMC11417369
